Experimental data from the supplement of paper PMC8728848.
The other results are listed elsewhere or left out.

Key:
Experiment in all cases: glycan array binding signal (z-score within array); higher = stronger binding
Conditions in all cases: glycan notation: IUPAC condensed, linker removed
[1] = target: Gal(b1-4)GlcNAc(b1-3)Gal(b1-3)GalNAc
Method in brief: (§1)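 Arrays were curated from the Consortium for Functional Glycomics database, 3228 in total, and kept only where the protein sequence was available. Binding is expressed as a within-array Z-score. This score was averaged across arrays of the same protein sequence at different concentrations or buffers and across linkers, and negative values can be read as non-binding.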

[2] = target: Gal(b1-4)GlcNAc(b1-3)Gal(b1-3)GlcNAc
Method in brief: as §1

[3] = target: Gal(b1-4)GlcNAc(b1-3)Gal(b1-4)Glc
Method in brief: as §1

[4] = target: Gal(b1-4)GlcNAc(b1-3)Gal(b1-4)GlcNAc
Method in brief: as §1

[5] = target: Gal(b1-4)GlcNAc(b1-3)Gal(b1-4)GlcNAc(b1-2)Man(a1-3)[Gal(b1-4)GlcNAc(b1-3)Gal(b1-4)GlcNAc(b1-2)Man(a1-6)]Man(b1-4)GlcNAc(b1-4)GlcNAc
Method in brief: as §1

[6] = target: Gal(b1-4)GlcNAc(b1-3)Gal(b1-4)GlcNAc(b1-2)Man(a1-3)[Gal(b1-4)GlcNAc(b1-3)Gal(b1-4)GlcNAc(b1-2)Man(a1-6)]Man(b1-4)GlcNAc(b1-4)[Fuc(a1-6)]GlcNAc
Method in brief: as §1

[7] = target: Gal(b1-4)GlcNAc(b1-3)Gal(b1-4)GlcNAc(b1-2)[Gal(b1-4)GlcNAc(b1-3)Gal(b1-4)GlcNAc(b1-6)]Man(a1-6)[Gal(b1-4)GlcNAc(b1-3)Gal(b1-4)GlcNAc(b1-2)Man(a1-3)]Man(b1-4)GlcNAc(b1-4)GlcNAc
Method in brief: as §1

[8] = target: Gal(b1-4)GlcNAc(b1-3)Gal(b1-4)GlcNAc(b1-2)[Gal(b1-4)GlcNAc(b1-3)Gal(b1-4)GlcNAc(b1-6)]Man(a1-6)[Gal(b1-4)GlcNAc(b1-3)Gal(b1-4)GlcNAc(b1-2)Man(a1-3)]Man(b1-4)GlcNAc(b1-4)[Fuc(a1-6)]GlcNAc
Method in brief: as §1

[9] = target: Gal(b1-4)GlcNAc(b1-3)Gal(b1-4)GlcNAc(b1-3)Gal(b1-4)GlcNAc
Method in brief: as §1

[10] = target: Gal(b1-4)GlcNAc(b1-3)Gal(b1-4)GlcNAc(b1-3)Gal(b1-4)GlcNAc(b1-2)Man(a1-3)[Gal(b1-4)GlcNAc(b1-3)Gal(b1-4)GlcNAc(b1-3)Gal(b1-4)GlcNAc(b1-2)Man(a1-6)]Man(b1-4)GlcNAc(b1-4)GlcNAc
Method in brief: as §1

[11] = target: Gal(b1-4)GlcNAc(b1-3)Gal(b1-4)GlcNAc(b1-3)Gal(b1-4)GlcNAc(b1-2)Man(a1-3)[Gal(b1-4)GlcNAc(b1-3)Gal(b1-4)GlcNAc(b1-3)Gal(b1-4)GlcNAc(b1-2)Man(a1-6)]Man(b1-4)GlcNAc(b1-4)[Fuc(a1-6)]GlcNAc
Method in brief: as §1

[12] = target: Gal(b1-4)GlcNAc(b1-3)Gal(b1-4)GlcNAc(b1-3)Gal(b1-4)GlcNAc(b1-2)[Gal(b1-4)GlcNAc(b1-3)Gal(b1-4)GlcNAc(b1-3)Gal(b1-4)GlcNAc(b1-6)]Man(a1-6)[Gal(b1-4)GlcNAc(b1-3)Gal(b1-4)GlcNAc(b1-3)Gal(b1-4)GlcNAc(b1-2)Man(a1-3)]Man(b1-4)GlcNAc(b1-4)[Fuc(a1-6)]GlcNAc
Method in brief: as §1

[13] = target: Gal(b1-4)GlcNAc(b1-3)Gal(b1-4)GlcNAc(b1-3)Gal(b1-4)GlcNAc(b1-3)Gal(b1-4)GlcNAc(b1-2)Man(a1-3)[Gal(b1-4)GlcNAc(b1-3)Gal(b1-4)GlcNAc(b1-3)Gal(b1-4)GlcNAc(b1-3)Gal(b1-4)GlcNAc(b1-2)Man(a1-6)]Man(b1-4)GlcNAc(b1-4)GlcNAc
Method in brief: as §1

[14] = target: Gal(b1-4)GlcNAc(b1-3)Gal(b1-4)GlcNAc(b1-3)Gal(b1-4)GlcNAc(b1-3)Gal(b1-4)GlcNAc(b1-2)Man(a1-3)[Gal(b1-4)GlcNAc(b1-3)Gal(b1-4)GlcNAc(b1-3)Gal(b1-4)GlcNAc(b1-3)Gal(b1-4)GlcNAc(b1-2)Man(a1-6)]Man(b1-4)GlcNAc(b1-4)[Fuc(a1-6)]GlcNAc
Method in brief: as §1

[15] = target: Gal(b1-4)GlcNAc(b1-3)Gal(b1-4)GlcNAc(b1-3)Gal(b1-4)GlcNAc(b1-3)Gal(b1-4)GlcNAc(b1-2)[Gal(b1-4)GlcNAc(b1-3)Gal(b1-4)GlcNAc(b1-3)Gal(b1-4)GlcNAc(b1-3)Gal(b1-4)GlcNAc(b1-6)]Man(a1-6)[Gal(b1-4)GlcNAc(b1-3)Gal(b1-4)GlcNAc(b1-3)Gal(b1-4)GlcNAc(b1-3)Gal(b1-4)GlcNAc(b1-2)Man(a1-3)]Man(b1-4)GlcNAc(b1-4)[Fuc(a1-6)]GlcNAc
Method in brief: as §1

[16] = target: Gal(b1-4)GlcNAc(b1-3)Gal(b1-4)GlcNAc(b1-3)Gal(b1-4)GlcNAc(b1-3)Gal(b1-4)GlcNAc(b1-3)Gal(b1-4)GlcNAc(b1-2)Man(a1-3)[Gal(b1-4)GlcNAc(b1-3)Gal(b1-4)GlcNAc(b1-3)Gal(b1-4)GlcNAc(b1-3)Gal(b1-4)GlcNAc(b1-3)Gal(b1-4)GlcNAc(b1-2)Man(a1-6)]Man(b1-4)GlcNAc(b1-4)GlcNAc
Method in brief: as §1

[17] = target: Gal(b1-4)GlcNAc(b1-3)Gal(b1-4)GlcNAc(b1-3)Gal(b1-4)GlcNAc(b1-3)Gal(b1-4)GlcNAc(b1-3)Gal(b1-4)GlcNAc(b1-2)Man(a1-3)[Gal(b1-4)GlcNAc(b1-3)Gal(b1-4)GlcNAc(b1-3)Gal(b1-4)GlcNAc(b1-3)Gal(b1-4)GlcNAc(b1-3)Gal(b1-4)GlcNAc(b1-2)Man(a1-6)]Man(b1-4)GlcNAc(b1-4)[Fuc(a1-6)]GlcNAc
Method in brief: as §1

[18] = target: Gal(b1-4)GlcNAc(b1-3)Gal(b1-4)GlcNAc(b1-3)Gal(b1-4)GlcNAc(b1-3)Gal(b1-4)GlcNAc(b1-3)Gal(b1-4)GlcNAc(b1-2)[Gal(b1-4)GlcNAc(b1-3)Gal(b1-4)GlcNAc(b1-3)Gal(b1-4)GlcNAc(b1-3)Gal(b1-4)GlcNAc(b1-3)Gal(b1-4)GlcNAc(b1-6)]Man(a1-6)[Gal(b1-4)GlcNAc(b1-3)Gal(b1-4)GlcNAc(b1-3)Gal(b1-4)GlcNAc(b1-3)Gal(b1-4)GlcNAc(b1-3)Gal(b1-4)GlcNAc(b1-2)Man(a1-3)]Man(b1-4)GlcNAc(b1-4)[Fuc(a1-6)]GlcNAc
Method in brief: as §1

[19] = target: Gal(b1-4)GlcNAc(b1-3)Gal(b1-4)GlcNAc(b1-3)Gal(b1-4)GlcNAc(b1-3)Gal(b1-4)GlcNAc(b1-3)Gal(b1-4)GlcNAc(b1-3)Gal(b1-4)GlcNAc(b1-2)Man(a1-3)[Gal(b1-4)GlcNAc(b1-3)Gal(b1-4)GlcNAc(b1-3)Gal(b1-4)GlcNAc(b1-3)Gal(b1-4)GlcNAc(b1-3)Gal(b1-4)GlcNAc(b1-3)Gal(b1-4)GlcNAc(b1-2)Man(a1-6)]Man(b1-4)GlcNAc(b1-4)GlcNAc
Method in brief: as §1

[20] = target: Gal(b1-4)GlcNAc(b1-3)Gal(b1-4)GlcNAc(b1-3)GalNAc
Method in brief: as §1

[21] = target: Gal(b1-4)GlcNAc(b1-3)Gal(b1-4)GlcNAc(b1-3)[Gal(b1-4)GlcNAc(b1-3)Gal(b1-4)GlcNAc(b1-6)]GalNAc
Method in brief: as §1

[22] = target: Gal(b1-4)GlcNAc(b1-3)Gal(b1-4)GlcNAc(b1-6)[Gal(b1-3)]GalNAc
Method in brief: as §1

[23] = target: Gal(b1-4)GlcNAc(b1-3)Gal(b1-4)[Fuc(a1-3)]GlcNAc(b1-3)Gal(b1-4)[Fuc(a1-3)]GlcNAc
Method in brief: as §1

[24] = target: Gal(b1-4)GlcNAc(b1-3)GalNAc
Method in brief: as §1

[25] = target: Gal(b1-4)GlcNAc(b1-3)[Fuc(a1-3)GlcNAc(b1-6)]Gal(b1-4)Glc
Method in brief: as §1

[26] = target: Gal(b1-4)GlcNAc(b1-3)[Gal(b1-4)GlcNAc(b1-6)]Gal(b1-4)GlcNAc
Method in brief: as §1

[27] = target: Gal(b1-4)GlcNAc(b1-3)[Gal(b1-4)GlcNAc(b1-6)]GalNAc
Method in brief: as §1

[28] = target: Gal(b1-4)GlcNAc(b1-3)[GlcNAc(b1-6)]Gal(b1-4)GlcNAc
Method in brief: as §1

[29] = target: Gal(b1-4)GlcNAc(b1-6)Gal(b1-4)GlcNAc
Method in brief: as §1

[30] = target: Gal(b1-4)GlcNAc(b1-6)Gal(b1-4)GlcNAc(b1-6)GalNAc
Method in brief: as §1

[31] = target: Gal(b1-4)GlcNAc(b1-6)GalNAc
Method in brief: as §1

[32] = target: Gal(b1-4)GlcNAc(b1-6)[Gal(b1-3)]GalNAc
Method in brief: as §1

[33] = target: Gal(b1-4)GlcNAc(b1-6)[Gal(b1-4)GlcNAc(b1-3)]GalNAc
Method in brief: as §1

[34] = target: Gal(b1-4)GlcNAc6P
Method in brief: as §1

[35] = target: Gal(b1-6)Gal
Method in brief: as §1

[36] = target: Gal3S(b1-3)GalNAc
Method in brief: as §1

[37] = target: Gal3S(b1-3)GlcNAc
Method in brief: as §1

[38] = target: Gal3S(b1-3)[Fuc(a1-4)]GlcNAc
Method in brief: as §1

[39] = target: Gal3S(b1-4)Glc
Method in brief: as §1

[40] = target: Gal3S(b1-4)Glc6S
Method in brief: as §1

[41] = target: Gal3S(b1-4)GlcNAc
Method in brief: as §1

[42] = target: Gal3S(b1-4)GlcNAc6S
Method in brief: as §1

[43] = target: Gal3S(b1-4)[Fuc(a1-3)]Glc6S
Method in brief: as §1

[44] = target: Gal3S(b1-4)[Fuc(a1-3)]GlcNAc
Method in brief: as §1

[45] = target: Gal3S(b1-4)[Fuc(a1-3)]GlcNAc6S
Method in brief: as §1

B1: WGA (Triticum vulgare) (protein)
chain: QRCGEQGSNMECPNNLCCSQYGYCGMGGDYCGKGCQNGACWTSKRCGSQAGGATCPNNHCCSQYGHCGFGAEYCGAGCQGGPCRADIKCGSQSGGKLCPNNLCCSQWGFCGLGSEFCGGGCQSGACSTDKPCGKDAGGRVCTNNYCCSKWGSCGIGPGYCGAGCQSGGCDAVFAGAITANSTLLAE
- glycan array binding signal (z-score) [1]: -0.374
- glycan array binding signal (z-score) [2]: -0.342
- glycan array binding signal (z-score) [3]: -0.341
- glycan array binding signal (z-score) [4]: 0.027
- glycan array binding signal (z-score) [5]: 0.131
- glycan array binding signal (z-score) [6]: -0.118
- glycan array binding signal (z-score) [7]: -0.213
- glycan array binding signal (z-score) [8]: -0.132
- glycan array binding signal (z-score) [9]: -0.144
- glycan array binding signal (z-score) [10]: 0.337
- glycan array binding signal (z-score) [11]: -0.04
- glycan array binding signal (z-score) [12]: 0.052
- glycan array binding signal (z-score) [13]: 0.071
- glycan array binding signal (z-score) [14]: 0.051
- glycan array binding signal (z-score) [15]: 0.022
- glycan array binding signal (z-score) [16]: 0.112
- glycan array binding signal (z-score) [17]: 0.223
- glycan array binding signal (z-score) [18]: 0.244
- glycan array binding signal (z-score) [19]: 0.072
- glycan array binding signal (z-score) [20]: 0.012
- glycan array binding signal (z-score) [21]: 0.058
- glycan array binding signal (z-score) [22]: -0.072
- glycan array binding signal (z-score) [23]: -0.337
- glycan array binding signal (z-score) [24]: -0.349
- glycan array binding signal (z-score) [25]: -0.275
- glycan array binding signal (z-score) [26]: -0.18
- glycan array binding signal (z-score) [27]: 1.38
- glycan array binding signal (z-score) [28]: 1.62
- glycan array binding signal (z-score) [29]: 0.334
- glycan array binding signal (z-score) [30]: 1.21
- glycan array binding signal (z-score) [31]: 1.02
- glycan array binding signal (z-score) [32]: -0.191
- glycan array binding signal (z-score) [33]: -0.248
- glycan array binding signal (z-score) [34]: -0.265
- glycan array binding signal (z-score) [35]: -0.357
- glycan array binding signal (z-score) [36]: -0.365
- glycan array binding signal (z-score) [37]: -0.339
- glycan array binding signal (z-score) [38]: -0.336
- glycan array binding signal (z-score) [39]: -0.343
- glycan array binding signal (z-score) [40]: -0.354
- glycan array binding signal (z-score) [41]: -0.265
- glycan array binding signal (z-score) [42]: -0.263
- glycan array binding signal (z-score) [43]: -0.202
- glycan array binding signal (z-score) [44]: -0.345
- glycan array binding signal (z-score) [45]: -0.264
